Measured values as given in PubChem BioAssay AID1030 (National Center for Advancing Translational Sciences (NCATS), 2008).
Several values for one entry are separate records, joined by “and”; a condition that tells them apart may be missing. Identical values can stand only once. Among all 220,000 compounds or so, about 16,000 (7.3%) were called active. The inconclusive results got no clear call from the source; some entries with a clear call stand among them for comparison. The call rests on the fitted dose curve; in most records, active means well fitted inhibition curve with a large enough effect (not every such curve was filed as active); inconclusive means small, poorly fitted or top-dose-only effect, or another doubt; inactive means no such curve, though single readings can be large or run the other way. A potency beside an inconclusive call is a rough fit, not a confirmed value.

Target: Aldehyde dehydrogenase 1A1 (Homo sapiens) (UniProt P00352)
UniProt P00352, sequence (P00352 whole entry, looked up): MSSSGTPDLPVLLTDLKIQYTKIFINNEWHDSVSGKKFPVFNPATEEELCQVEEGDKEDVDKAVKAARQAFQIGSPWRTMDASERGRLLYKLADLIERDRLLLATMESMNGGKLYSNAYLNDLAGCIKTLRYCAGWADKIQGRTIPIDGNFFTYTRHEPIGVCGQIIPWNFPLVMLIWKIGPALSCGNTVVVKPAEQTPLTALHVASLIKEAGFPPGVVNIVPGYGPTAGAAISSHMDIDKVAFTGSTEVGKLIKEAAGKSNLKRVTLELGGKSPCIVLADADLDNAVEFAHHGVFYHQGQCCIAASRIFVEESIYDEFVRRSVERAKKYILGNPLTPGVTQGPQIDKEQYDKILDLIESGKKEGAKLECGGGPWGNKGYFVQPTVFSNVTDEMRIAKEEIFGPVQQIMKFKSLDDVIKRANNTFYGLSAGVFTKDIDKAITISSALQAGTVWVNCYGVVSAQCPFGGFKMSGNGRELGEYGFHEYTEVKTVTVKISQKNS
Experiment: qHTS Assay for Inhibitors of Aldehyde Dehydrogenase 1 (ALDH1A1);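 on activity, negative = inhibition: plate controls were no enzyme wells and a reference inhibitor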
Details: Purified ALDH1A1, NADH fluorescence, propionaldehyde substrate; series mostly up to 75.3 µM; activity, negative = inhibition: at the top concentration
Potency means the concentration at half of the fitted maximal effect; tags describe the fitted curve by direction and shape.

Compound | Potency | activity, negative = inhibition
COc1ccc(C(O)P(=O)(O)CCc2ccccc2)cc1 (stereo not drawn) | inconclusive: 28.2 µM [inhibitor, partial curve] | 
COc1ccc(-c2cn3cccnc3n2)cc1NS(=O)(=O)c1ccccc1 | inconclusive: 25.1 µM [inhibitor, partial curve] | 
CCOC(=O)C(C)(C)N(Cc1ccccc1C)S(=O)(=O)c1ccc(Cl)c([N+](=O)[O-])c1 |  | inactive: -8.8%
CC1CC(C)CN(C(=O)c2ccc(NC(=O)c3ccc(=O)[nH]c3)cc2)C1 (stereo not drawn) |  | inactive: -6.25%
O=C(NCc1c(Cl)cccc1Oc1ccccc1)c1ccccc1 |  | inactive: 3.13%
O=C(O)c1cccc(NC(=O)C2CC(=O)N(Cc3ccccc3)C2)c1 (stereo not drawn) |  | inactive: 7.27%
O=C(COC(=O)CCc1ccc(S(=O)(=O)N2CCOCC2)cc1)NC1CCCCCC1 |  | inactive: -15.3%
CCOc1ccc2cc(S(=O)(=O)N3CCOCC3)ccc2c1 | inconclusive: 25.1 µM [inhibitor, single point] | 
CN1CCCN([C@@H](c2ccccc2)c2ccc(Cl)cc2)CC1 |  | inactive: 10.9% [at 20.9 µM]
S=c1nc[nH]c2c1ncn2C1CCCO1 (stereo not drawn) | active: 12.6 µM | 
NCCCCCCNS(=O)(=O)c1ccc2c(Cl)cccc2c1 | inconclusive: 28.2 µM [inhibitor, partial curve] | 
CC(NC(=O)C1CCCN(S(=O)(=O)c2cccs2)C1)c1ccccc1 (stereo not drawn) | inconclusive: 39.8 µM [inhibitor, single point] | 
CCOC(=O)/C(C#N)=C/c1cc(C)n(-c2ccc(C)cc2)c1C | active: 11.2 µM | 
O=C1/C(=C\c2cccnc2)CCc2ccccc21 | inconclusive: 39.8 µM [inhibitor, single point] | 
CC(=O)C1=C(O)CCC1=NCCc1ccccc1 | inconclusive: 44.7 µM [inhibitor, single point] | 
Cc1ccc(C2C(C(=O)c3cccs3)=C(O)C(=O)N2c2nnc(C)s2)cc1 (stereo not drawn) | inconclusive: 39.8 µM [inhibitor, single point] | 
CCOc1cccc2sc(NN)nc12 | inconclusive: 39.8 µM [inhibitor, single point] | 
CN(C)c1ccc(/C=[N+](\[O-])C2SC(=S)N(C)C2(C)C)cc1 (stereo not drawn) | active: 0.447 µM | 
CSc1nc(-c2ccccc2)cn1-c1ccc(NC(C)=O)cc1 | inconclusive: 39.8 µM [inhibitor, single point] | 
Nc1nc(-c2ccccc2)c(-c2ccccc2)c(-c2nc(N)nc(-c3ccccc3)c2-c2ccccc2)n1 |  | inactive: 6.34% [at 13.5 µM]
COc1cc(C(=O)Nc2nc(-c3ccc(Cl)cc3)c(C)s2)ccc1OCC(=O)Nc1ccc(F)cc1 | inconclusive: 39.8 µM [inhibitor, single point] | 
O=C(/C=C/c1ccco1)Nc1ccc2c(c1)OCO2 | inconclusive: 31.6 µM [inhibitor, single point] | 
Cc1ccc(N2CCN(CC(O)COc3ccc([N+](=O)[O-])cc3)CC2)cc1 (stereo not drawn) | inconclusive: 39.8 µM [inhibitor, single point] | 

Compound | Potency | activity, negative = inhibition
CCCS(=O)(=O)N1CCC(C(=O)NCCCN2CCC(Cc3ccccc3)CC2)CC1 |  | inactive: 7.5%
CCOc1ccc(NC(=O)CCSc2nc3c(c(CC)c2C#N)C(=O)CC(C)(C)C3)cc1 | inconclusive: 17.8 µM [inhibitor, single point] | 
Cc1cc(C)c2c(N)c(C(=O)Nc3nccs3)sc2n1 | inconclusive: 28.2 µM [inhibitor, partial curve] | 
CCOC(=O)CSc1nc(C)c(CC)c(C)c1C(N)=O |  | inactive: 11.5%
CC(C)(Oc1ccc(Cl)cc1)C(=O)OCn1nnc2ccccc2c1=O | active: 5.01 µM | 
O=C(CS(=O)(=O)Cc1ccccc1)NCc1ccc2c(c1)OCO2 | inconclusive: 44.7 µM [inhibitor, single point] | 
CCOC(=O)C1=C(C)N(c2ccccc2)C(=O)/C1=C\c1cccs1 |  | inactive: -9.29%
O=C(Oc1ccccc1C(=O)N1CCOCC1)c1ccccc1 |  | inactive: 4.63%
CC(C)Cn1c(N)c(C(=O)COC(=O)c2cc(C(F)(F)F)nc3ccccc23)c(=O)n(C)c1=O | inconclusive: 39.8 µM [inhibitor, partial curve, poor fit] and inconclusive: 25.1 µM [inhibitor, partial curve] | 
Cc1csc(NC(=O)c2cn3ccccc3n2)n1 | inconclusive: 14.1 µM [inhibitor, partial curve] | 
CN(C)S(=O)(=O)c1cc(NC2CC(=O)N(c3ccc(F)cc3)C2=O)ccc1Cl (stereo not drawn) | inconclusive: 39.8 µM [inhibitor, single point] | 
O=C(CCCC(=O)N(CC(=O)NC1CCCC1)Cc1ccccc1Cl)Nc1ccccn1 | inconclusive: 22.4 µM [inhibitor, partial curve] | 
CCOC(=O)c1c(C2COc3ccccc3O2)csc1NC(=O)c1ccco1 (stereo not drawn) | inconclusive: 15.8 µM [inhibitor, partial curve] | 
O=C(CCC(=O)OCc1ccc([N+](=O)[O-])cc1)Nc1ccc(F)cc1 | inconclusive: 28.2 µM [inhibitor, partial curve] | 
COC(=O)c1sc2nc(CN3CCN(c4cccc(C(F)(F)F)c4)CC3)[nH]c(=O)c2c1C | inconclusive: 7.08 µM [inhibitor, full curve] | 
Cc1cc(SCC(=O)c2ccccc2)nc(C)n1 | inconclusive: 35.5 µM [inhibitor, single point] | 
Cc1ccc(C2Nc3ccc4ccccc4c3C3=C2C(=O)CC(C)(C)C3)o1 (stereo not drawn) | inconclusive: 12.6 µM [inhibitor, partial curve] | 
CN1CCC(NC(=O)Cc2c(F)cccc2Cl)CC1 | inconclusive: 39.8 µM [inhibitor, single point] | 
O=C(O)c1ccc(Nc2nc(-c3cccnc3)nc3ccccc23)cc1 |  | inactive: -8.33%
CCN=C(NCC)SC1CC(=O)N(c2cccc(OCC)c2)C1=O (stereo not drawn) |  | inactive: 14%
Nc1nnc(CCS(=O)(=O)c2cc(Cl)ccc2Cl)s1 | active: 25.1 µM | 
CC1=CC2C(C)(C)CC(=O)C[C@]2(C)CC1COc1ccc2c(c1)CC(=O)C=C2 (stereo partly drawn) | inconclusive: 35.5 µM [inhibitor, single point] | 
Cc1ccc(C)c(N2CCN(C(=S)Nc3ccc4nc(N5CCOCC5)cc(C)c4c3)CC2)c1 | inconclusive: 7.94 µM [inhibitor, partial curve] | 

Compound | Potency | activity, negative = inhibition
COc1ccc(C(NC(=O)/C=C/c2ccco2)c2ccc(OC)c(OC)c2)cc1OC | inconclusive: 37.7 µM [inhibitor, single point] | 
COC(=O)CSc1nc2c(c(=O)[nH]c(=O)n2C)n1CCC(C)C | inconclusive: 35.5 µM [inhibitor, single point] | 
COc1ccc(CNc2ncnc3ccc(-c4cccc(NS(C)(=O)=O)c4)cc23)c(OC)c1 |  | inactive: 3.01%
O=C(Nc1ccccc1F)N(CCCN1CCOCC1)Cc1cc2cc3c(cc2[nH]c1=O)OCCO3 | inconclusive: 35.5 µM [inhibitor, single point] | 
Cc1nn(-c2ccccc2)c(C)c1/C=N/NC(=O)c1cc(C(C)(C)C)[nH]n1 | inconclusive: 20 µM [inhibitor, single point] | 
C=CCOc1ccc(C=Nc2ccc(Cl)cc2)c(O)c1 |  | inactive: -6.06%
O=C(CCCSc1nnc(Nc2ccccc2F)s1)N1CCOCC1 | inconclusive: 31.6 µM [inhibitor, single point] | 
CCn1c2ccccc2c2nnc(SCC(=O)Nc3ccc4c(c3)OCO4)nc21 | inconclusive: 20 µM [inhibitor, partial curve] | 
CN(C)/N=N/c1nc[nH]c1C(N)=O | inconclusive: 15.8 µM [inhibitor, partial curve] and inconclusive: 17.8 µM [inhibitor, partial curve] | 
Cc1cc(C)c(C#N)c(=N)o1 | inconclusive: 15.8 µM [inhibitor, partial curve] | 
CCOc1ccc(OCC)c(NC(=O)CN2CCN(c3cccc(C)c3C)CC2)c1 | inconclusive: 35.5 µM [inhibitor, single point] | 
CCn1cc([N+](=O)[O-])c(C(=O)N2N=C(c3cccc4ccccc34)CC2c2ccccc2O)n1 (stereo not drawn) | inconclusive: 39.8 µM [inhibitor, single point] | 
O=C(Cn1c2ccccc2c(=O)c2ccccc21)N/N=C/c1cc([N+](=O)[O-])ccc1N1CCCCCC1 |  | inactive: 5.2%
CCOc1ccc(C(=O)NC(=S)Nc2ncccc2C)cc1[N+](=O)[O-] | inconclusive: 10 µM [inhibitor, partial curve] | 
CC1(C)COC(c2coc3ccccc3c2=O)OC1 |  | inactive: 9.63%
COC(=O)c1cccc(S(=O)(=O)N(Cc2ccco2)Cc2cc3cc(OC)ccc3[nH]c2=O)c1 | inconclusive: 35.5 µM [inhibitor, partial curve] | 
COc1ccc(C(=O)c2c[nH]cc2-c2ccccc2)cc1 | inconclusive: 8.91 µM [inhibitor, partial curve] | 
Cc1cc(C(=O)N/N=C/C=C/c2cccc([N+](=O)[O-])c2)n[nH]1 |  | inactive: -6.66%
CCC1CCCCN1S(=O)(=O)c1ccc(S(=O)(=O)N(Cc2ccccn2)CC2CCCO2)cc1 (stereo not drawn) | inconclusive: 17.8 µM [inhibitor, partial curve] | 
Cc1nc2cnc(N3CCN(C)CC3)nc2n(C[C@H]2CCCO2)c1=O | inconclusive: 22.4 µM [inhibitor, partial curve] | 
Cc1nc2ccccn2c1-c1nnco1 | inconclusive: 39.8 µM [inhibitor, single point] | 
CC(C)CCNC(=O)CN(Cc1ccc2c(c1)OCO2)C(=O)Cn1nnc(-c2cccs2)n1 | inconclusive: 20 µM [inhibitor, partial curve] | 
